Experimental data taken from PubChem BioAssay AID360 (National Center for Advancing Translational Sciences (NCATS), 2006).
The campaign covered roughly 48,000 compounds. About 550 (1.1%) were called active. Inconclusive results (about 4%) are left out. Cut-off read from the data, not from the text of the source: active = potency below about 15 µM; inconclusive = mostly about 16 µM to 33 µM; inactive = weaker than that. Some of the results follow.
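Note: the screen sought inhibitors.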
Potency is the fitted concentration of half-maximal effect.

These compounds were tested against Lysosomal acid glucosylceramidase (Homo sapiens) (UniProt P04062) (assay: Glucocerebrosidase). Settings: purified enzyme, resorufin glucoside fluorescence (screen aimed at inhibitors), 20 min; series mostly up to 77 µM.
Chain of UniProt P04062 (P04062 whole entry, looked up): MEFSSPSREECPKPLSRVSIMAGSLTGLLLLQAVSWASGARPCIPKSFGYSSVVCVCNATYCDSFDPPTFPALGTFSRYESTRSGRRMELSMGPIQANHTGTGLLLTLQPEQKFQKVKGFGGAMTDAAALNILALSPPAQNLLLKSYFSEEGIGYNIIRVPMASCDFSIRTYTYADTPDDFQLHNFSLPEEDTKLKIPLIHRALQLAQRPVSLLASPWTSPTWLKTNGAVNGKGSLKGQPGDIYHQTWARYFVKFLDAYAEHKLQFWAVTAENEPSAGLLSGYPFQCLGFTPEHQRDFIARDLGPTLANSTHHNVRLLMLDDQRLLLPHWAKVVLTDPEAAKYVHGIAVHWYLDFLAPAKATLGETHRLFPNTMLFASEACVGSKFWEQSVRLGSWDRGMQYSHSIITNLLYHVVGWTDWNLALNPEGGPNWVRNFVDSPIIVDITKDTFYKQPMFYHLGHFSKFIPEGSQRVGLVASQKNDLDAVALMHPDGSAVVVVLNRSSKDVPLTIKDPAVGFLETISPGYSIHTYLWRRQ
Procedure, shortened: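 Wild-type enzyme at 0.2 nM final in 50mM citric acid/KH2PO4, 10mM sodium taurocholate, 0.01% tween-20, pH 5.9, with resorufin beta-D-glucopyranoside at 30 uM final. Compounds titrated, 20 min at RT, red fluorescence read; AC50 from titration.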
In the case of `COC(=O)c1ccc(NC(=O)C2CCN(S(C)(=O)=O)CC2)cc1`, the Potency is reported as inactive: > 76.9 µM.
`O=C(Nc1ccccc1)N1CCN(c2nc3ccccc3s2)CC1` was tested, and the Potency was inactive: > 76.9 µM.
With `CCOCCOc1nc2c(c(=O)n(C)c(=O)n2C)n1CCc1ccccc1` the Potency was inactive: > 76.9 µM.
For `COc1ccccc1NC(=O)Nc1ccnn1C1CCCCC1`, the Potency was inactive: > 76.9 µM.
In the case of `CCNC(=O)CC(=O)Nc1ccccc1C(=O)O`, the Potency is reported as inactive: > 76.9 µM.
For `CCOC(=O)C1=C(C)Nc2ncnn2C1c1c[nH]c2ccccc12` (stereo not given), the Potency was inactive: > 76.9 µM.
With `O=c1cc(Nc2ccc3c(c2)OCCO3)[nH]c(=O)n1-c1ccc(Br)cc1` the Potency was inactive: > 76.9 µM.
In the case of `O=C(COc1cccc(C(F)(F)F)c1)Nc1ccc(S(=O)(=O)N2CCCC2)cc1`, the Potency is reported as inactive: > 76.9 µM.
For `CCn1c(=O)c(C(=O)NCCN2CCCCC2)c(O)c2ccccc21`, the Potency was inactive: > 76.9 µM.
For `c1ccc(-c2ccc(-c3ccccn3)nn2)nc1`, the Potency was inactive: > 76.9 µM.
In the case of `O=C(C(F)C(F)(F)F)N1CCN(c2ccccc2)CC1` (stereo not given), the Potency is reported as inactive: > 76.9 µM.
For `COc1ccc(-c2nc(NC(=O)c3cc(C(C)(C)C)nn3C)sc2C)cc1`, the Potency was inactive: > 76.9 µM.
With `O=C1N/C(=C\c2ccccc2)c2ccccc21` the Potency was inactive: > 76.9 µM.
In the case of `Cn1c(Cn2nnc3ccccc32)nnc1SCC(=O)NCc1ccc2c(c1)OCO2`, the Potency is reported as inactive: > 76.9 µM.
For `COc1ccc(OC)c(NC2c3ncccc3C(=O)N2Cc2ccco2)c1` (stereo not given), the Potency was inactive: > 76.9 µM.
For `COCCNC(=O)c1snc2ccc(Cl)cc12`, the Potency was inactive: > 76.9 µM.
For `Cc1ccc2c(c1)c1ncnc(N3CCC4(CC3)OCCO4)c1n2C`, the Potency was inactive: > 76.9 µM.
In the case of `CCOC(=O)c1c(NC(=O)c2nc3n(n2)C(C(F)F)CC(C)N3)sc2c1CCCC2` (stereo not given), the Potency is reported as inactive: > 76.9 µM.
With `COc1ccc(OC)c(S(=O)(=O)Nc2ccccc2C)c1` the Potency was inactive: > 76.9 µM.
In the case of `COc1cc2nc(SCC(=O)NCCc3ccccc3)n(Cc3ccco3)c(=O)c2cc1OC`, the Potency is reported as inactive: > 76.9 µM.
In the case of `Cc1nc2nc(SCC(=O)NCc3ccco3)nn2c(C)c1Cc1c(F)cccc1Cl`, the Potency is reported as inactive: > 76.9 µM.
`Cn1c(CNc2ccccn2)c(C#N)c2ccccc21` was tested, and the Potency was inactive: > 76.9 µM.
In the case of `Oc1ccccc1-c1cc(-c2ccccc2Cl)[nH]n1`, the Potency is reported as inactive: > 76.9 µM.
`CCC(CC)C(=O)Nc1cccc(C(=O)NCc2ccco2)c1` was tested, and the Potency was inactive: > 76.9 µM.
For `Nc1nsc2ccccc12`, the Potency was inactive: > 76.9 µM.
For `CCOC(=O)N1CCN(C(=O)c2oc3ccc(S(=O)(=O)N4CCCCC4)cc3c2C)CC1`, the Potency was inactive: > 76.9 µM.
`COc1ccc(CNC(=O)C2CCN(S(=O)(=O)c3cc(OC)ccc3OC)CC2)cc1` was tested, and the Potency was inactive: > 76.9 µM.
In the case of `CCn1c(COc2cccc3ccccc23)nnc1SCC(N)=O`, the Potency is reported as inactive: > 76.9 µM.
For `Clc1ccccc1OCc1nnc(-c2ccccc2Br)o1`, the Potency was inactive: > 76.9 µM.
In the case of `Cc1ccc(-c2cc(-c3ccccc3Cl)c(C#N)c(N)n2)o1`, the Potency is reported as inactive: > 76.9 µM.
`COc1ccc(-c2nnc(SC(C)C(=O)Nc3ccc4c(c3)OCCO4)o2)cc1` (stereo not given) was tested, and the Potency was inactive: > 76.9 µM.
In the case of `O=C1CC(Sc2ncccn2)C(=O)N1c1ccccc1C(F)(F)F` (stereo not given), the Potency is reported as inactive: > 76.9 µM.
`Cc1ccc(C)c(NC(=O)C2CC(O)CN2C(=O)OC(C)(C)C)c1` (stereo not given) was tested, and the Potency was inactive: > 76.9 µM.
With `O=S1(=O)N=C2CCCN2C(c2ccc(F)cc2)N1` (stereo not given) the Potency was inactive: > 76.9 µM.
`Cc1ccc(Nc2nc3nonc3[nH]c2=O)cc1` was tested, and the Potency was inactive: > 76.9 µM.
With `CCc1cc(/C(Cc2ccc3ccccc3n2)=N\O)c(O)cc1O` the Potency was inactive: > 76.9 µM.
With `O=S(=O)(c1ccccc1)N(C1=NCCS1)S(=O)(=O)c1ccccc1` the Potency was inactive: > 76.9 µM.
For `COc1cccc(C2C3=C(CCCC3=O)Nc3nc4ccccc4n32)c1OC` (stereo not given), the Potency was inactive: > 76.9 µM.
With `CCOc1cc(-c2nc(-c3ccccc3OC)no2)cc(OCC)c1OCC` the Potency was inactive: > 76.9 µM.
In the case of `Clc1ccc2nc3ccccn3c2c1`, the Potency is reported as inactive: > 76.9 µM.
`CC(C)Cn1c(-c2ccc(Cl)cc2)cnc1SCC(=O)N1CCOCC1` was tested, and the Potency was inactive: > 76.9 µM.
In the case of `c1ccc2c(c1)Cn1nnnc1-2`, the Potency is reported as inactive: > 76.9 µM.
With `FC(F)(F)c1cccc(OCCOCCn2cncn2)c1` the Potency was inactive: > 76.9 µM.
With `C=CCn1c(CC(=O)OC)csc1=Nc1ccc(C(C)=O)cc1` the Potency was inactive: > 76.9 µM.
With `COC(=O)CN1C(=O)C(O)(CC(=O)c2ccc(C)o2)c2ccccc21` (stereo not given) the Potency was inactive: > 76.9 µM.
With `COc1ccccc1CNC(=O)CN(c1ccc(C)cc1)S(=O)(=O)c1c(C)nn(C)c1C` the Potency was inactive: > 76.9 µM.
For `CC1CC1C(=O)OCc1cc(=O)n2cc(Br)ccc2n1` (stereo not given), the Potency was inactive: > 76.9 µM.
For `Fc1cc2nccnc2cc1N1CCSCC1`, the Potency was inactive: > 76.9 µM.
`CC(=O)OC1CC(C)N(C(=O)c2ccccc2)c2ccc(C)cc21` (stereo not given) was tested, and the Potency was inactive: > 76.9 µM.
`COc1cc(-c2nn3c(-c4cccc(C)c4)nnc3s2)cc(OC)c1OC` was tested, and the Potency was inactive: > 76.9 µM.
For `O=C(NCCCN1CCN(c2ccccc2F)CC1)C1CCC(=O)N1C1CCCCC1` (stereo not given), the Potency was inactive: > 76.9 µM.
`CN(C1CCCCC1)S(=O)(=O)c1ccc(NC(=O)c2ccco2)cc1` was tested, and the Potency was inactive: > 76.9 µM.
For `c1ccc(-c2ccccc2-c2nc(-c3cccnc3)no2)cc1`, the Potency was inactive: > 76.9 µM.
In the case of `Cc1cccc(N2C(=O)CC(N(C(=O)c3ccco3)c3cccc(C)c3)C2=O)c1` (stereo not given), the Potency is reported as inactive: > 76.9 µM.
In the case of `COC(=O)c1ccccc1S(=O)(=O)N(Cc1ccco1)Cc1cc2cc(OC)ccc2[nH]c1=O`, the Potency is reported as inactive: > 76.9 µM.
With `COc1ccc(CCN(Cc2nc(-c3ccccc3)no2)Cc2nc(-c3ccccc3)no2)cc1OC` the Potency was inactive: > 76.9 µM.
`O=C(c1ccc(N2CCNCC2)cc1)c1cccnc1` was tested, and the Potency was inactive: > 76.9 µM.
With `CCNC(=O)c1ccc2c(c1)S(=O)(=O)c1ccccc1C2=O` the Potency was inactive: > 76.9 µM.
For `Cc1onc(-c2c(Cl)cccc2Cl)c1C(=O)Nc1c(C)n(C)n(-c2ccccc2)c1=O`, the Potency was inactive: > 76.9 µM.
With `O=C1CCCc2[nH]nc(-c3cccnc3)c21` the Potency was inactive: > 76.9 µM.
For `CCn1c(=S)sc2c(=O)n(-c3ccccc3)c(SC)nc21`, the Potency was “inactive”.
`CCC(C)(C)NC(=O)C(c1ccncc1)N(Cc1cccs1)C(=O)Cn1nnc2ccccc21` (stereo not given) was tested, and the Potency was inactive: > 76.9 µM.
In the case of `CN(CCNC(=O)c1ccc(N2CCCC2=O)cc1)CCc1ccccc1`, the Potency is reported as inactive: > 76.9 µM.
In the case of `COc1cc2ccccc2cc1C(=O)Nc1ccc(S(=O)(=O)Nc2cc(C)on2)cc1`, the Potency is reported as inactive: > 76.9 µM.
`COC(=O)c1c(NC(=O)CSc2nnc(Cn3nnc4ccccc43)n2C)sc(C)c1C` was tested, and the Potency was inactive: > 76.9 µM.
With `CC1=Nc2ncnn2C(c2ccccc2)/C1=N\O` (stereo not given) the Potency was inactive: > 76.9 µM.
With `c1ccc2c(N3CCCC3)nc(-c3ccncc3)nc2c1` the Potency was inactive: > 76.9 µM.
`COc1ccc(/C(O)=C2\C(=O)C(=O)N(c3cc(C)on3)C2c2ccc(OC)c(OC)c2)cc1OC` (stereo not given) was tested, and the Potency was inactive: > 76.9 µM.
For `O=C(Nc1nnc(C2CCCCC2)s1)c1ccc(Br)s1`, the Potency was inactive: > 76.9 µM.
With `O=C(Cn1[nH]c(=O)c2ccccc2c1=O)OCC(=O)N1CCCc2ccccc21` the Potency was inactive: > 76.9 µM.
In the case of `COc1ccc(-c2ccc(=O)n(CC(=O)Nc3cccc(O)c3)n2)cc1OC`, the Potency is reported as inactive: > 76.9 µM.
In the case of `CN1C(=O)C(O)(C2COC(C)(C)CC2=O)c2cc(Br)ccc21` (stereo not given), the Potency is reported as inactive: > 76.9 µM.
In the case of `Cc1ccc(C(=O)C2=C(O)C(=O)N(Cc3ccccc3)C2c2cccnc2)o1` (stereo not given), the Potency is reported as inactive: > 76.9 µM.
With `Cc1cc(C(=O)NCCCn2ccnc2)sc1-c1ccccc1` the Potency was active: 10.6 µM.
`CC(C)(C)NC(=O)CSc1ncnc2c1nnn2Cc1ccccc1Cl` was tested, and the Potency was inactive: > 76.9 µM.
In the case of `O=C(CN1C(=O)C2C3C=CC(C3)C2C1=O)Nc1nc(SCc2ccc(Cl)cc2)n[nH]1` (stereo not given), the Potency is reported as inactive: > 76.9 µM.
`Cc1ccc(C(c2nnnn2Cc2cccs2)N2CCN(C(=O)c3ccco3)CC2)cc1` (stereo not given) was tested, and the Potency was inactive: > 76.9 µM.
For `CCCS(=O)(=O)NCCc1cc2c(OC)ccc(OC)c2[nH]c1=O`, the Potency was inactive: > 76.9 µM.
For `Cc1ccc2nc(SCC(=O)NCc3ccco3)c(C#N)cc2c1`, the Potency was inactive: > 76.9 µM.
For `CCn1c(SCC(=O)N2CCOCC2)nc2c(c1=O)SC(C)C2` (stereo not given), the Potency was inactive: > 76.9 µM.
For `CCOc1ccc(S(=O)(=O)NCCC(=O)OC(C)C(=O)N2CCc3ccccc32)cc1` (stereo not given), the Potency was inactive: > 76.9 µM.
With `CC(=O)c1c(C)[nH]c(C(=O)NCc2ccccc2Cl)c1C` the Potency was inactive: > 76.9 µM.
`Cc1ccc(S(=O)(=O)N(CCO)c2cc3c(s2)CCCC3)cc1` was tested, and the Potency was inactive: > 76.9 µM.
With `c1cc2nncn2nc1N1CCCC1` the Potency was inactive: > 76.9 µM.
In the case of `O=C(CC1(O)C(=O)N(Cc2ccc3c(c2)OCO3)c2ccccc21)c1ccccc1` (stereo not given), the Potency is reported as inactive: > 76.9 µM.
With `O=C(NC1CS(=O)(=O)CC1NCc1ccccc1)c1ccccc1` (stereo not given) the Potency was inactive: > 76.9 µM.
For `CC(=O)/C(C[N+]1(C)CCCCC1)=N\O`, the Potency was inactive: > 76.9 µM.
For `COc1ccccc1NC(=O)C1CCCCN1S(=O)(=O)c1ccc(F)cc1` (stereo not given), the Potency was inactive: > 76.9 µM.
With `Cn1c(=O)oc2cc(S(=O)(=O)NCCC(=O)N3CCc4ccccc4C3)ccc21` the Potency was inactive: > 76.9 µM.
In the case of `CC(C)(C)n1nc2c(c1NC(=O)c1ccc(S(=O)(=O)N3CCCC3)cc1)CS(=O)C2` (stereo not given), the Potency is reported as inactive: > 76.9 µM.
